These results are taken from ChEMBL document CHEMBL4888484, “Replenishing the malaria drug discovery pipeline: Screening and hit evaluation of the MMV Hit Generation Library 1 (HGL1) against asexual blood stage Plasmodium falciparum ,using a nano luciferase reporter read-out” (2022).

Each structure is given as a SMILES string. Screen size: about 150,000 compounds; about 540 (0.36%) showed an effect of 50% or more. The list shows a part of the results.

The assay relates to Plasmodium falciparum. Put plainly: Primary screen in NF54 nanoGlo assay, in single point, at 2uM, 72h; a lower Z score goes with more inhibition. It counts as functional, Erythrocyte. The conditions noted are these: timepoint 72 hour.
In the case of `CCCc1nc2cccnc2n1[C@H]1CCN(S(=O)(=O)c2cccnc2)C1`, the “% Inhibition” value is given as -7% and the Z score is listed as 0.74.
On the same counts, the results for `COc1ccccc1C(=O)N1CCN(Cc2nnc(C)s2)CC1` are 6% and -1.16.
As to `COc1ccc(Cl)cc1NC(=O)Cn1c(=O)c(N2CCCCC2)nc2ccccc21`, the “% Inhibition” value is -17% and the Z score is recorded as 1.67.
In the case of `C[C@H]1CN(C(=O)c2cc(N(C)C)ccn2)C(C)(C)CO1`, the “% Inhibition” value is on record as -7% and the Z score is 0.71.
`CCN1C[C@@H](C(=O)N(Cc2cnn(C)c2)C2CCCCC2)CC1=O`: the “% Inhibition” value is listed as -16% and the Z score is recorded as 2.3.
On the same counts, the results for `CC(=O)Nc1cccc(C#CCN2CCN(c3ccc(F)cc3)CC2)c1` are 32% and -1.28.
On the same counts, the results for `CC(C)=CCC/C(C)=C/CN1CCC[C@H]1C(=O)O` are -11% and 2.13.
On the same counts, the results for `Cc1noc(C)c1CNCc1c(C(F)(F)F)cnn1C` are -3% and 0.42.
Consider `CCCn1ncnc1[C@H](C)NS(=O)(=O)N1CCCC1`, for which the “% Inhibition” value is -17% and the Z score amounted to 2.24.
On the same counts, the results for `C=C(C)COCCNC(=O)c1ccc(Br)c(O)c1` are -13% and 1.33.
Regarding `COc1ccc(C(C)CC(=O)N2CCCCC2c2nc(-c3ccccc3)c[nH]2)cc1` (stereo not drawn), the “% Inhibition” value is listed as 0% and the Z score is reported as -0.02.
On the same counts, the results for `Cc1nn(Cc2nc([C@H]3CCOC3)no2)c(=O)c2ccccc12` are -16% and 1.54.
On the same counts, the results for `O=C(c1c[nH]nn1)N1CCC(OCc2ccc(Cl)c(Cl)c2)CC1` are -5% and 0.94.
Regarding `CCCN(CC(=O)N(Cc1ccccc1)Cc1ccc(C)o1)C(=O)N(C)C`, the “% Inhibition” value is listed as -6% and the Z score came out at 0.85.
As to `CC1(C)[C@H](C(=O)Nc2ccc(Br)cc2)CC[C@]1(C)C(=O)O`, the “% Inhibition” value is on record as -10% and the Z score was found to be 1.32.
On to `Cc1nn(CCC(C)C)c2nc(-c3cnc(C)n3C)[nH]c12`, for which the “% Inhibition” value is on record as -7% and the Z score was determined as 1.19.
For the molecule `N#CCCN(Cc1cc(F)c(F)c(F)c1)CC1CC1`, the “% Inhibition” value was -2% and the Z score worked out at 0.2.
Regarding `CCc1c(C(=O)N2CCC(c3ccnn3CCO)CC2)cnn1-c1cccc(Cl)c1`, the “% Inhibition” value is -3% and the Z score stood at 0.24.
As to `CC(C)(C(=O)NCc1c(F)cccc1OC(F)F)c1c[nH]cn1`, the “% Inhibition” value is -1% and the Z score is listed as 0.06.
On the same counts, the results for `NC(=O)Cn1cc2c(n1)[C@@H](NS(=O)(=O)c1ccccc1Cl)CCC2` are -3% and 0.31.
On the same counts, the results for `CC[C@@H](CCO)NC(=O)Nc1sc(C)nc1C` are 13% and -1.32.
On the same counts, the results for `Cc1nnnn1[C@@H](C(=O)N1CCCNC(=O)C1)c1ccccc1` are -8% and 0.73.
For the molecule `O=S(=O)(c1ccccc1)N1CCC(=C2CC2)CC1`, the “% Inhibition” value is -14% and the Z score came to 1.58.
Regarding `CC(=O)c1cccc(NC(=O)c2ccc(N(C)C3CCCCC3)cc2)c1`, the “% Inhibition” value is given as 3% and the Z score is -0.52.

As usually defined, the % Inhibition is the relative decrease from the control value, in per cent.
